These results are taken from the supplement of paper PMC3334620.

Over roughly 33,000 sequences, “E-score (-0.5 to 0.5)” has its median near -0.043; the highest 2% begin near 0.37. The list shows a part of the results.

This experiment addresses T1, Upc2 (UniProt Q12151).
T1 sequence: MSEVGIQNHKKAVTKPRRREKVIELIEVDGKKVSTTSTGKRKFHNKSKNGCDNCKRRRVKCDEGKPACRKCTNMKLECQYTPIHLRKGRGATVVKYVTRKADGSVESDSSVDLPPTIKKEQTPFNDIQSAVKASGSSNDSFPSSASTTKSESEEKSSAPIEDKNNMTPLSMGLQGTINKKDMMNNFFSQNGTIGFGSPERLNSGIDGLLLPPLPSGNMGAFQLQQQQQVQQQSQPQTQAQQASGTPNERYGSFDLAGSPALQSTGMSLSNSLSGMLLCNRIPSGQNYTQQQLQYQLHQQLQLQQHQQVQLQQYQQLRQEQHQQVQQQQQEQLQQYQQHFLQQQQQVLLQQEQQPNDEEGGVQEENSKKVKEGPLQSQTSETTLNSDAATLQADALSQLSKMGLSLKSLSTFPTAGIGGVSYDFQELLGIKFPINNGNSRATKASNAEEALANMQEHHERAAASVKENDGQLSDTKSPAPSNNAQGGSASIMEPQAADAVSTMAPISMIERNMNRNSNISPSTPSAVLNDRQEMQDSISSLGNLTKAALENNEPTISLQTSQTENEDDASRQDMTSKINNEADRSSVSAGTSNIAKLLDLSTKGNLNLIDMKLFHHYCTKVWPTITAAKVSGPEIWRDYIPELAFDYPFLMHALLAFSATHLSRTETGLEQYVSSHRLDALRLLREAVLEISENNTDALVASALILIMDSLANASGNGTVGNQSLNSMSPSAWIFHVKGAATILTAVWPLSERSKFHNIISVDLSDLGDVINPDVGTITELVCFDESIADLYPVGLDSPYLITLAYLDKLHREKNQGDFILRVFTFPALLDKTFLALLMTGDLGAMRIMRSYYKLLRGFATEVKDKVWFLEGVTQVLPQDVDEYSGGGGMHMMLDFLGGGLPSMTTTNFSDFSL
The experiment in a line: PBM E-score (8-mer binding enrichment) (E-score (-0.5 to 0.5)); higher = stronger / more preferred TF binding; most listed sequences are background and not binding sites. The following applies: protein concentration: 200 nM; construct: GST-full length. The protocol: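 Universal 'all 10-mer' protein binding microarrays (Agilent AMADID 015681) probed with GST-tagged S. cerevisiae TFs (full-length or DBD) made by in vitro transcription/translation (PURExpress), about 100-200 nM. Bound TF was detected with fluorescent anti-GST. Each ungapped 8-mer (which stands for itself and its reverse complement) is scored by the PBM enrichment score (E-score), a modified Wilcoxon-Mann-Whitney statistic from -0.5 to +0.5, computed with the Universal PBM Analysis Suite. Scale: above 0.35 generally sequence-specific binding.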
In the case of CTTTGTCA, the “PBM E-score” value was -0.108. For ACCGCAAG the value was 0.0713; for GCTTGAAA, 0.0039. For GCGCTTCC the value was -0.0303.

As to ATAACGTC, the “PBM E-score” value is -0.0505. The value for GGCAGACA was 0.0889. The value for GCCCCAAA was 0.0539; that for TCGCTTCA was 0.012. The value for AATACACC was 0.0375; that for CGACCTAG was 0.138; that for GATCATAC was 0.132. For the sequence AGGAATGG, the “PBM E-score” value is -0.0816.

As to AGACTTCC, the “PBM E-score” value was -0.0535. For CAAAATAA the value was -0.00602. The value for ACGTCCTC was -0.123; that for AGATACGC was 0.201; that for CACATATC was -0.158.

As to ATCTGAGA, the “PBM E-score” value is -0.112. Regarding ATTCTACC, the “PBM E-score” value was -0.111. The value for GATGACCA was -0.124; that for ATACAAGC was -0.0812; that for CGACTGGC was 0.0921.

For the sequence ACTTTATA, the “PBM E-score” value came out at 0.127. For ACATGTGA the value was -0.134. The value for CAGGGTGG was -0.0687. The value for CTGTTGAC was -0.0114; that for GTCAGGGA was -0.174. Take GCTCGGTA: the “PBM E-score” value amounted to 0.213. For AGCATAAC the value was -0.00187; for TACGGATA, 0.3.

On to ATTGACTC, for which the “PBM E-score” value is -0.111. For ATGTTCGA, the “PBM E-score” value is -0.0346.

Turning to CGCAACGC, the “PBM E-score” value is 0.0437.

Take GCGCACAC: the “PBM E-score” value is -0.199. For CAGATTTC the value was -0.0305; for ACAGTTTA, 0.0481; for CAAGTCAC, -0.162. For GAGCACCC the value was -0.0816; for GGGGATAC, 0.0375; for ACGTGCCC, 0.135. For GCCGCCCA the value was -0.0637.

As to GACTGCCA, the “PBM E-score” value is -0.165.

On to AGTCAAAG, for which the “PBM E-score” value is -0.00429. For ACGCACAA the value was 0.115; for AATGAAGG, -0.0344; for CCTAGAGC, -0.328. The value for CACGCCTA was -0.0789; that for CGGATTAC was 0.0155. For GGCTTTCA the value was 0.0463; for GTTTCACA, 0.00208; for CGTTGGAG, -0.0641. Turning to TCTCTACA, the “PBM E-score” value is -0.144. For GCGGTCCC the value was -0.139; for CAGAGAAC, -0.0663; for TTAGGGAA, -0.101. For AGGCACGA, the “PBM E-score” value was -0.187.

With ATGAAAGC, the “PBM E-score” value is 0.00743. For CCTCGATA the value was -0.0083; for AGTCTGGA, -0.0209.

Regarding AACAAACG, the “PBM E-score” value was found to be 0.353.

As for GCTTCCTA, the “PBM E-score” value stood at 0.0242. Regarding CACTGTCG, the “PBM E-score” value came out at 0.138.

As for GGCCAGCC, the “PBM E-score” value is -0.0923.

On to ACAAGCTC, for which the “PBM E-score” value is -0.0437. For CGAAGGAC the value was 0.0495; for ATTTATTA, 0.185. As for TTTGAAAA, the “PBM E-score” value was found to be 0.0863. The value for AATCAGAA was -0.0871; that for ATCTCCAT was -0.322. The value for AATTTGAG was -0.00158; that for GGACTGAC was -0.126. The value for ACTATTTC was 0.0805. As for ACCCCCCG, the “PBM E-score” value was -0.158.

Regarding GACTAGTA, the “PBM E-score” value is -0.16. For CCACTGAC the value was -0.0899; for CCGTTTCG, 0.255; for ACAGTTCG, 0.195.

Consider AATTCGAC, for which the “PBM E-score” value was -0.211. The value for CGCACCGA was 0.0582. The value for GATATCAC was 0.00147. For CGTTGCAC, the “PBM E-score” value worked out at 0.182. The value for TGGACAAA was -0.137; that for CCTGTAGC was -0.306. As for CTCTGGGC, the “PBM E-score” value is -0.189. For GCCTTAAC the value was 0.127; for CTTGTGCA, -0.0202.
